# Data reported in the supplement of paper PMC3334620.
# The full ranking holds about 33,000 sequences; the median of “E-score (-0.5 to 0.5)” is about -0.032, and the highest 2% start at about 0.36. This is one part of the list.
# Target: T1, Sko1 (UniProt Q02100)
# T1 sequence: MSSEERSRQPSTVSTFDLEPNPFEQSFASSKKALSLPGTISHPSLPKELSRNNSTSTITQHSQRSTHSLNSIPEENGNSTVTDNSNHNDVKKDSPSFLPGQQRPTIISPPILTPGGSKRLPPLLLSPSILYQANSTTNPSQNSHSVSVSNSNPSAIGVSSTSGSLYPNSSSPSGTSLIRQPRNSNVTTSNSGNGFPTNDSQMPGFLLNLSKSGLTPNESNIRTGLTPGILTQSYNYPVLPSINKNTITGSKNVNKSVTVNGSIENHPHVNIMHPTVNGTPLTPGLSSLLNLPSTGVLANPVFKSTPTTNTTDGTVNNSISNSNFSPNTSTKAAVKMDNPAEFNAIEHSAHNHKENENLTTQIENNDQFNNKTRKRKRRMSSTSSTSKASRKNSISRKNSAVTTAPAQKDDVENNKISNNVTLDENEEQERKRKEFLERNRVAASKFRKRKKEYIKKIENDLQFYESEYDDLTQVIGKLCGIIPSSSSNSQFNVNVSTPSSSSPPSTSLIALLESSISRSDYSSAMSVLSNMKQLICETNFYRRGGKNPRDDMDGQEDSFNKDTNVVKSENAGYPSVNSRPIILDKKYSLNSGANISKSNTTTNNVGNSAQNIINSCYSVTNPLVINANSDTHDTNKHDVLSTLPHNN
# Test: PBM E-score (8-mer binding enrichment) (E-score (-0.5 to 0.5)); higher = stronger / more preferred TF binding; most listed sequences are background and not binding sites
# Conditions: protein concentration: 200 nM; construct: GST-full length
# Experimental: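 Universal 'all 10-mer' protein binding microarrays (Agilent AMADID 015681) probed with GST-tagged S. cerevisiae TFs (full-length or DBD) made by in vitro transcription/translation (PURExpress), about 100-200 nM. Bound TF was detected with fluorescent anti-GST. Each ungapped 8-mer (which stands for itself and its reverse complement) is scored by the PBM enrichment score (E-score), a modified Wilcoxon-Mann-Whitney statistic from -0.5 to +0.5, computed with the Universal PBM Analysis Suite. Scale: above 0.35 generally sequence-specific binding.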
row,Sequence,PBM E-score
1,ACGAGAAC,0.165
2,ACCTGATC,-0.128
3,TATCAAGA,0.173
4,AACGCTTG,-0.111
5,AAACCCTC,-0.024
6,TGTATAAA,0.132
7,ACAGAACC,-0.146
8,TACTATAA,0.109
9,CAGCAACC,-0.127
10,CGAGAGCG,-0.206
11,AACGATGA,0.143
12,GTTTACGA,0.289
13,ACCCATAT,0.0692
14,ACTCGGAG,-0.16
15,CCGCTCCG,-0.269
16,CAGGCGCG,-0.154
17,AGTTCCTA,0.209
18,GCCATGGC,-0.182
19,ACAGAAGC,-0.0522
20,CTCCCAGA,-0.225
21,AGCACCCA,-0.174
22,GAGGGGGA,-0.155
23,ATACGAAC,0.256
24,GCCTGGGA,-0.241
25,ACTGATCG,-0.108

row,Sequence,PBM E-score
1,CATCGAAC,0.00604
2,ACGGCAGA,-0.0578
3,AAACTACA,0.109
4,ATCATGTG,0.118
5,AACTTAGT,-0.138
6,ATAATGCG,0.19
7,GGCTCCCC,-0.256
8,CGGGATAC,-0.257
9,AATGAGAA,-0.032
10,CCTGTACC,-0.317
11,CCGACAAC,0.0177
12,CCTGTCAC,-0.0885
13,ACCCACCT,-0.284
14,AGTCGAAT,-0.2
15,AGGTGGGC,-0.257
16,AACCGTTC,-0.078
17,CCCGAGGG,-0.252
18,GTGAAGTA,0.0702
19,TATAACAA,0.187
20,ATTTCGTC,0.343
21,ATTGCACA,0.0452
22,CGCACGAC,0.0225
23,CGGGGAGC,-0.0693
24,GAGAAGTA,0.042
25,AGTGTGAT,0.17

row,Sequence,PBM E-score
1,ACGCACAC,0.345
2,ATAAGCGA,-0.0228
3,CGTCACAG,0.438
4,ATGCCCAA,-0.255
5,ACGCGATC,0.341
6,GGCTTCAC,-0.149
7,GCCGATGA,-0.199
8,CGAGGACA,-0.144
9,AGTCTGAT,-0.126
10,GAGACACC,-0.131
11,CATATAGA,0.0798
12,ATCTGGTG,0.0771
13,CTAAACGA,0.00291
14,CTTCTCGA,-0.08
15,GACCTAAC,0.131
16,GGAAAGGA,-0.186
17,AAGTGTGT,0.153
18,AACGCCGG,-0.208
19,CGTCTATA,0.0863
20,ACAGTAGT,0.0868
21,GCGTAGAA,0.178
22,CACGACCC,-0.154
23,ACTGTGTG,-0.114
24,ATTTTTAC,0.166
25,AACCTAGT,-0.12

row,Sequence,PBM E-score
1,ATGTTGTA,0.226
2,AGCTGCTG,-0.134
3,CCGCCGGC,-0.123
4,CCGTCAGA,-0.0558
5,ACACAAAA,0.0661
6,CTTTCCCC,-0.0837
7,ACTGAAAC,0.173
8,ATCTGCTA,0.0516
9,AATGCGCG,0.171
10,GTGGTAGA,-0.157
11,CTCGCGCA,0.0932
12,ACACGCCT,0.0543
13,CAAGGCGG,-0.154
14,AGAAGCTA,-0.149
15,ACGTTGAC,0.308
16,AATGGCAC,-0.187
17,GTCCCCAA,-0.021
18,GCAGGTAA,0.0611
19,ATACCCAA,0.109
20,CCGTCGAC,-0.145
21,GCTGATAC,-0.0349
22,CCCCAGGA,-0.377
23,AATGACCG,0.0453
24,ACCGGTGG,-0.404
25,CCACAGAC,-0.079

row,Sequence,PBM E-score
1,GGACTCAC,-0.126
2,GAGGTCAC,0.00312
3,CGACCCCC,-0.292
4,ATGAACCG,-0.0451
5,ACGAAAGC,0.187
6,AATCGTCG,-0.0862
7,CCCCGAAA,-0.174
8,ACCTTAAG,-0.161
9,TAATCACA,0.146
10,AAGCTGCA,0.05
11,AAGCCTCT,-0.198
12,AAGGTGAG,-0.0794
13,CAAATTGA,-0.145
14,TACGAACA,0.273
15,CAACCTCA,0.0206
16,CTACTGCC,-0.226
17,GCCCTTGA,-0.245
18,CGGAAGAA,0.0668
19,CCCGCAAC,-0.136
20,TAGATGAA,0.0876
21,AAAAACTG,-0.0634
22,CGGCAGGA,-0.344
23,GAGGCTAA,-0.073
24,ACGCTAGT,-0.0767
25,CGGTGGCC,-0.211

row,Sequence,PBM E-score
1,GCCACTTA,-0.086
2,ATCTATTG,0.134
3,TACGACTA,0.151
4,GAGGTGCC,-0.231
5,GGGAATGA,0.163
6,AGACGCGG,-0.0753
7,CCCCACTA,-0.065
8,CAGCATAC,0.0626
9,CAGAGCTC,-0.185
10,GCACCAAC,-0.211
11,GCGCGACA,0.0211
12,GAGTTACC,-0.14
13,ACGGTTCA,-0.126
14,AGGCACAA,-0.0774
15,AGAGATCT,-0.147
16,GAACCGTC,-0.153
17,ACGGGCTC,-0.324
18,ACAACGCG,0.0581
19,AGGGAACC,-0.185
20,CGATCCTA,-0.24
21,GAGCTCGC,-0.0227
22,GAGTGTAA,-0.15
23,AAGGAAAA,0.0489
24,CCAGTATC,-0.319
25,AAGGCGGC,-0.114

row,Sequence,PBM E-score
1,AGGGCAAT,-0.231
2,CCAATCAA,-0.143
3,AGGGTAAA,-0.00269
4,ACATAGTA,0.26
5,AACTTAAT,0.202
6,AACATATG,0.0524
7,CCTTGAGA,-0.233
8,CTATGCGA,-0.0756
9,CATGACCA,0.0587
10,ATAATCAT,0.286
11,ACCAGATC,-0.168
12,GGCTAGCA,-0.247
13,CCCGTGCG,-0.0353
14,ATGACGCC,0.449
15,ACCTACCT,-0.109
16,ATCGAACG,0.165
17,AAATATGA,0.23
18,ACATCTGC,-0.126
19,CTGAGGAC,-0.113
20,GGTGTCGA,-0.11
21,TTGTTAAA,-0.0742
22,AGAACAGG,-0.121
